Where “and” joins values, the source holds several entries; their conditions need not be identical. Equal values may be shown once. The shares of active, inactive and inconclusive entries below differ from those in the screen. A potency beside an inconclusive call is a rough fit, not a confirmed value. A structure can be active in one record and inactive in another. Calls of active or inactive are those of the source. Unless noted, calls follow the shape of the dose curve; as a rule, active = well fitted curve in the direction sought with a large enough effect in the repeat runs; inconclusive = weak or mixed curves; inactive = no such curve, though single readings can be large; an effect the other way counts as inactive or inconclusive.
Legend:
[1] = target: Androgen receptor (Homo sapiens) (UniProt P10275); assay: qHTS assay to identify small molecule antagonists of the androgen receptor (AR) signaling pathway (AID 743035; active = well fitted inhibition curve with a large enough effect in the signal ratio in the repeat runs, not every such curve was filed as active; inconclusive = weak or mixed curves, or effect the other way; inactive = no such curve, though single readings can be large or run the other way; the % refers to the signal ratio; as to activity change, negative = inhibition: % is scaled to controls: 0 for no effect and ±100 for the full control effect); conditions: HEK293 AR-UAS-bla, R1881-stimulated, beta-lactamase FRET, 16 h; activity change, negative = inhibition: at 58.5 µM (top of the series) unless noted
Summary of the method: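 Cell line: GeneBLAzer AR-UAS-bla GripTite (HEK293). Stimulus: R1881 added after compound. Exposure: 16 h, 37C, 5% CO2. Readout: LiveBLAzer B/G FRET fluorescence after 2 h at room temperature.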

[2] = target: Androgen receptor (Homo sapiens) (UniProt P10275); assay: qHTS assay to identify small molecule agonists of the androgen receptor (AR) signaling pathway (AID 743036; active = well fitted activation curve with a large enough effect in the signal ratio in the repeat runs, with a control signal flat, not every such curve was filed as active; inconclusive = weak or mixed curves, or effect the other way; inactive = no such curve, though single readings can be large or run the other way; the % refers to the signal ratio; as to activation: % is scaled to controls: 0 for no effect and ±100 for the full control effect); conditions: HEK293 AR-UAS-bla GripTite, beta-lactamase FRET ratio, 16 h; activation: at 62.4 µM (top of the series) unless noted
Summary of the method: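 Beta-lactamase under UAS control, stably integrated in HEK293 GripTite cells, reports receptor activation. After 16 h compound treatment, cells received FRET substrate for 2 h at room temperature before fluorescence reading.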

[3] = target: Androgen receptor (Homo sapiens) (UniProt P10275); assay: qHTS assay to identify small molecule antagonists of the androgen receptor (AR) signaling pathway using the MDA cell line (AID 743042; also: nearly all actives have a fitted effect of over 55% in size)
Summary of the method: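 MDA-kb2 breast carcinoma cells carrying MMTV-luciferase (AR/GR responsive) were co-treated with compounds and the agonist R1881 for 16 h at 37C. Inhibition read as ONE-Glo luminescence; CellTiter-Fluor fluorescence measured in parallel for cytotoxicity.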

[4] = target: Estrogen receptor (Homo sapiens) (UniProt P03372); assay: qHTS assay to identify small molecule antagonists of the estrogen receptor alpha (ER-alpha) signaling pathway (AID 743069; active = well fitted curve in the direction sought with a large enough effect in the signal ratio in the repeat runs, not every such curve was filed as active; inconclusive = weak or mixed curves, or effect the other way; inactive = no such curve, though single readings can be large or run the other way; the % refers to the signal ratio); conditions: HEK293 ER-alpha-UAS-bla, beta-lactamase ratio, antagonist mode; activity, negative = inhibition: at 69.4 µM (top of the series)
Summary of the method: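 HEK293 ER-alpha-UAS-bla GripTite cells, held overnight in 2% charcoal-stripped FBS, 5,000 cells/well, preincubated 4 h, then compound plus 17beta-estradiol for 18 h at 37C. Beta-lactamase read by LiveBLAzer B/G FRET substrate, 2 h at room temperature.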

[5] = qHTS assay to identify small molecule antagonists of the estrogen receptor alpha (ER-alpha) signaling pathway - cell viability counter screen (AID 743074; calls by dose curve;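 also: HEK293 cells carrying ER-alpha-UAS-bla reporter stimulated with 17beta-estradiol; nearly all actives have a fitted effect of over 45% in size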)
[6] = target: Estrogen receptor (Homo sapiens) (UniProt P03372); assay: qHTS assay to identify small molecule agonists of the estrogen receptor alpha (ER-alpha) signaling pathway using the BG1 cell line (AID 743079); conditions: BG1Luc4E2 cells, ERE-luciferase agonist, 22 h; activation: at 70.3 µM (top of the series) unless noted; also: nearly all actives have a fitted effect of over 20% in size; as to activation: % is scaled to controls: 0 for no effect and ±100 for the full control effect
[7] = qHTS assay to identify small molecule antagonists of the estrogen receptor alpha (ER-alpha) signaling pathway using the BG1 cell line (AID 743080; calls by dose curve;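 also: BG1 cells stimulated with 17beta-estradiol alongside compound; nearly all actives have a fitted effect of over 25% in size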); conditions: BG1Luc4E2 ERE-luciferase antagonist mode, luminescence; activity change, negative = inhibition: at 70.3 µM (top of the series) unless noted
Summary of the method: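 BG1-Luc-4E2 cells (endogenous full-length ER-alpha, stable 4×ERE-luciferase) were starved 5 days in phenol-red-free medium with 10% charcoal-stripped FBS, plated 24 h, then given compound plus 17beta-estradiol for 21.5 h at 37 C; ONE-Glo luminescence read after 30 min.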

[8] = qHTS assay to identify small molecule antagonists of the estrogen receptor alpha (ER-alpha) signaling pathway using the BG1 cell line - cell viability counter screen (AID 743081);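 also: compound given together with 17beta-estradiol as the ER stimulus; nearly all actives have a fitted effect of over 45% in size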
[9] = target: Peroxisome proliferator-activated receptor gamma (Homo sapiens) (UniProt P37231); assay: qHTS assay to identify small molecule agonists of the peroxisome proliferator-activated receptor gamma (PPARg) signaling pathway (AID 743094; active = well fitted activation curve with a large enough effect in the signal ratio in the repeat runs, not every such curve was filed as active; inconclusive = weak or mixed curves, or effect the other way; inactive = no such curve, though single readings can be large or run the other way; the % refers to the signal ratio; as to activation: % is scaled to controls: 0 for no effect and ±100 for the full control effect); conditions: HEK293H PPARg-UAS-bla, beta-lactamase FRET ratio, 17 h; activation: at 57 µM (top of the series) unless noted
Summary of the method: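 Stably transfected HEK293H cells (GeneBLAzer PPARg UAS-bla) were incubated with test substances for 17 h at 37C after a 5 h pre-incubation; beta-lactamase activity was then detected by FRET substrate fluorescence.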

[10] = target: Peroxisome proliferator-activated receptor gamma (Homo sapiens) (UniProt P37231); assay: qHTS assay to identify small molecule antagonists of the peroxisome proliferator-activated receptor gamma (PPARg) signaling pathway (AID 743191; calls by dose curve; also: nearly all actives have a fitted effect of over 30% in size); conditions: HEK293H PPARg-UAS-bla, beta-lactamase ratio, antagonist, 17 h; ratio activity, negative = inhibition: at 62.6 µM (top of the series) unless noted
Summary of the method: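 GeneBLAzer PPARg UAS-bla HEK293H cells, 5 h post-plating, exposed to compounds 17 h at 37C. LiveBLAzer B/G FRET substrate added for 1 h at room temperature; beta-lactamase reporter read by fluorescence intensity.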

[11] = qHTS assay to identify small molecule antagonists of the thyroid receptor (TR) signaling pathway - cell viability counter screen (AID 743064); conditions: GH3.TRE-Luc viability, CellTiter-Fluor, 24 h; activity change, negative = cytotoxic: at 70.3 µM (top of the series); also: nearly all actives have a fitted effect of over 50% in size
Summary of the method: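 Compounds were tested on GH3.TRE-Luc cells in the presence of T3 at 1 nM final. Following 23.5 h at 37 °C, cell viability was quantified by CellTiter-Fluor.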

[12] = qHTS assay to identify small molecule antagonists of the thyroid receptor (TR) signaling pathway (AID 743065); also: nearly all actives have a fitted effect of over 55% in size
Summary of the method: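 GH3.TRE-Luc rat pituitary cells (two TREs driving luciferase) were dosed with compound, then stimulated with 1 nM T3 (final) for 23.5 h at 37 C. ONE-Glo luminescence was the read-out, with CellTiter-Fluor fluorescence as the cytotoxicity counter-screen.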

[13] = qHTS assay to identify aromatase inhibitors - cell viability counter screen (AID 743084);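 also: cells stimulated with testosterone during compound exposure; nearly all actives have a fitted effect of over 55% in size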
[14] = target: Estrogen receptor (Homo sapiens) (UniProt P03372); assay: qHTS assay to identify small molecule agonists of the estrogen receptor alpha (ER-alpha) signaling pathway (AID 743075; calls by dose curve); conditions: HEK293 ER-alpha-UAS-bla, beta-lactamase FRET ratio, 18 h; activation: at 70.1 µM (top of the series)
[15] = target: Aromatase (Homo sapiens) (UniProt P11511); assay: qHTS assay to identify aromatase inhibitors (AID 743083); also: nearly all actives have a fitted effect of over 55% in size
[16] = qHTS assay to identify small molecule that activate the aryl hydrocarbon receptor (AhR) signaling pathway - cell viability counter screen (AID 743086); also: nearly all actives have a fitted effect of over 45% in size
Summary of the method: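 HepG2-AhR-luc (HG2L7.5c1) cells, 4000/well, treated 24 h at 37 C with compound; viability measured as CellTiter-Fluor fluorescence after 30 min in the same wells as the luciferase read.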
Potency is read from the fitted curve at half-maximal effect; tags tell the direction and shape of the fitted curve or compound fluorescence and quenching.

Sequence of UniProt P37231 (P37231 whole entry, looked up): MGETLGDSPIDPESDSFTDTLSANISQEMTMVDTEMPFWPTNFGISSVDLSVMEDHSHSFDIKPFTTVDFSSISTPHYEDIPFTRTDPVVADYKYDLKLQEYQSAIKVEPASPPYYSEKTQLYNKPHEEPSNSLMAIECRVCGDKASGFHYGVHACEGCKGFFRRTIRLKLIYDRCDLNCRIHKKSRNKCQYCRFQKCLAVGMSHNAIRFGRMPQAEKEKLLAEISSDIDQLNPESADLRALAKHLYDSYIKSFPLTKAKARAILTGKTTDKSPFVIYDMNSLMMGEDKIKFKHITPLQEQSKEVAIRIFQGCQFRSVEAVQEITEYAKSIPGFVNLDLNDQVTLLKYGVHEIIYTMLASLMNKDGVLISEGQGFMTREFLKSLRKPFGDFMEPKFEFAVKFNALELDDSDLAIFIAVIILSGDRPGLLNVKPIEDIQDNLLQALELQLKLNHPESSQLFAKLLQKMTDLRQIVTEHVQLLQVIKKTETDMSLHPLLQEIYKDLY
Sequence of UniProt P11511 (P11511 whole entry, looked up): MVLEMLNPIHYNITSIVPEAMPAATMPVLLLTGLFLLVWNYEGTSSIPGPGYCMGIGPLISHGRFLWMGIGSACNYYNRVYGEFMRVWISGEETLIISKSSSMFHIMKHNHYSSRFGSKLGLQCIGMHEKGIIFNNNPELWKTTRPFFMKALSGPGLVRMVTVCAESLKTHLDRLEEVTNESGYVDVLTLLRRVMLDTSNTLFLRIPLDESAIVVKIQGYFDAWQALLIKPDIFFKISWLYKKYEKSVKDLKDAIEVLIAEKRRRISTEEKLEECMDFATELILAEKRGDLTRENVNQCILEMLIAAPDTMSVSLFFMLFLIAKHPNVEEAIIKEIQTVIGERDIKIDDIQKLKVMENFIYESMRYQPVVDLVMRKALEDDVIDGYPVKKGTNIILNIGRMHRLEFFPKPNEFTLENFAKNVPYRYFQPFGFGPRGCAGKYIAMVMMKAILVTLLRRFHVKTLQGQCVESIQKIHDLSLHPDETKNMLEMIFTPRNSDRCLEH
Sequence of UniProt P10275 (P10275 whole entry, looked up): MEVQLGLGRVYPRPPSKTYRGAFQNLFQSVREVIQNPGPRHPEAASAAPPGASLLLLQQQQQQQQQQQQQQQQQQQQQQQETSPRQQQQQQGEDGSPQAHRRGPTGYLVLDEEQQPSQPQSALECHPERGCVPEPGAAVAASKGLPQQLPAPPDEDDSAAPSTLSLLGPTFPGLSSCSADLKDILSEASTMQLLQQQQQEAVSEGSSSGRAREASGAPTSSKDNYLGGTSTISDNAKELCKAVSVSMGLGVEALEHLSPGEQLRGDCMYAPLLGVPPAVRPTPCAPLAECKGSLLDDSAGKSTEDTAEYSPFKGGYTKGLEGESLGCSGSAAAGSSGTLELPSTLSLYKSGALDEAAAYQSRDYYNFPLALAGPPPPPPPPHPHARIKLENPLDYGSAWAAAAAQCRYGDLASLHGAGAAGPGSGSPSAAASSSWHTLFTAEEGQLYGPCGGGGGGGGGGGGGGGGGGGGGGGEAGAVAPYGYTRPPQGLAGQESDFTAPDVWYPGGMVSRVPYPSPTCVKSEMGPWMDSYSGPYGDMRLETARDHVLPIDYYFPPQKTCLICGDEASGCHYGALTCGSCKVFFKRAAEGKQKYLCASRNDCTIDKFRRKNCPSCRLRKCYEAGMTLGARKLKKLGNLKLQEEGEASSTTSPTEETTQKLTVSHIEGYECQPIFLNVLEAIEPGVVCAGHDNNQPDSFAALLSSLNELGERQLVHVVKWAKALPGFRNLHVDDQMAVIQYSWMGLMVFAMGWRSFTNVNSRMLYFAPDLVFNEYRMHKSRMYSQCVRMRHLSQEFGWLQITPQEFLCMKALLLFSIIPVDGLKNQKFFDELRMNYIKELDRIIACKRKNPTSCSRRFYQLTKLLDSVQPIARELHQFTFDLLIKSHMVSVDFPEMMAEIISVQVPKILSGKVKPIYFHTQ
Sequence of UniProt P03372 (P03372 whole entry, looked up): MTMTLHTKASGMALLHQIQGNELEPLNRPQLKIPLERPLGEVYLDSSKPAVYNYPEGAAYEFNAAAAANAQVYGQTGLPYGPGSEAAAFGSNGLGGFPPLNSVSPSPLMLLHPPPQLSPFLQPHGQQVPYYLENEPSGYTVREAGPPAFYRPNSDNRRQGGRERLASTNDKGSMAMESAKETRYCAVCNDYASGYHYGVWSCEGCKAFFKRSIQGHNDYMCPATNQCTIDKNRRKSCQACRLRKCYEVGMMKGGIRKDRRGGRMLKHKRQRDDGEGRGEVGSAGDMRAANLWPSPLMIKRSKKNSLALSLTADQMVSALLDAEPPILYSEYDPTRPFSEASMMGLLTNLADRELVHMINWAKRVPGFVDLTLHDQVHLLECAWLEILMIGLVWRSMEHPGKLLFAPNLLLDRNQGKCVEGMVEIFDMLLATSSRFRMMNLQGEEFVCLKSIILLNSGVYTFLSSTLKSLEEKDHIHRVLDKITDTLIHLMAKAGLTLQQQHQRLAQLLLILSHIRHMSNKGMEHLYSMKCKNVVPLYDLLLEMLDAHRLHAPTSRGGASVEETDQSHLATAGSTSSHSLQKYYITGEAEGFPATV

Q: Which Potency [1] does the source give for C=CC(=O)OCC(COC(=O)C=C)(COC(=O)C=C)COC(=O)C=C here?
A: Its Potency is active: 4.36 µM.

Q: And the Potency [2]?
A: The Potency was inconclusive: 12.3 µM [falling, partial curve, poor fit].

Q: And the Potency [3]?
A: Its Potency is active: 1.93 µM.

Q: What about the Potency [4] of the same compound?
A: Its Potency is inconclusive: 19.5 µM.

Q: And the Potency [5]?
A: The Potency was active: 43.6 µM.

Q: What about the Potency [6] of the same compound?
A: The Potency was inconclusive: 27.3 µM [inhibitor, full curve].

Q: And the Potency [7]?
A: Its Potency is inconclusive: 2.43 µM [rising, full curve].

Q: What about the Potency [8] of the same compound?
A: Its Potency is active: 24.3 µM.

Q: What about the Potency [9] of the same compound?
A: Its Potency is inconclusive: 11 µM [fluorescent, partial curve].

Q: What about the Potency [10] of the same compound?
A: Its Potency is inconclusive: 6.16 µM.

Q: Which Potency [1] does the source give for CCc1cccc(CC)c1N(COC)C(=O)CCl here?
A: The Potency was active: 26.7 µM and active: 38.9 µM.

Q: And the Potency [3]?
A: The Potency was inconclusive: 47 µM [inhibitor, partial curve].

Q: And the Potency [11]?
A: The Potency was inconclusive: 68.6 µM [cytotoxic, single point].

Q: And the Potency [12]?
A: The Potency was inconclusive: 59.1 µM [inhibitor, partial curve, poor fit].

Q: And the Potency [5]?
A: Its Potency is inconclusive: 53.2 µM [cytotoxic, single point].

Q: And the Potency [6]?
A: Its Potency is “inactive”.

Q: What about the Potency [13] of the same compound?
A: Its Potency is inconclusive: 66.4 µM [cytotoxic] and inconclusive: 68.6 µM [cytotoxic, single point].

Q: And the Potency [9]?
A: The Potency was inconclusive: 59.7 µM [rising, single point].

Q: What about the activation [9] of the same compound?
A: Its activation is inconclusive: -11%.

Q: What about the Potency [10] of the same compound?
A: Its Potency is inconclusive: 9.46 µM [rising, full curve] and inconclusive: 2.75 µM [rising, full curve].

Q: Which Potency [1] does the source give for C[C@@H]1O[C@@H](O[C@H]2C[C@@H](O)[C@]3(CO)[C@H]4[C@H](O)C[C@]5(C)[C@@H](C6=CC(=O)OC6)CC[C@]5(O)[C@@H]4CC[C@]3(O)C2)[C@H](O)[C@H](O)[C@H]1O here?
A: Its Potency is active: 213 nM and active: 190 nM and active: 46.5 nM.

Q: What about the Potency [2] of the same compound?
A: The Potency was inconclusive: 33.8 nM [activator] and inconclusive: 42.5 nM [activator] and inconclusive: 16.5 nM [activator, single point].

Q: What about the Potency [3] of the same compound?
A: Its Potency is inconclusive: 1.33 µM [inhibitor, full curve].

Q: What about the Potency [4] of the same compound?
A: Its Potency is inconclusive: 268 nM [fluorescent, full curve] and inconclusive: 756 nM [fluorescent, full curve, poor fit] and inconclusive: 11.7 nM [activator, full curve].

Q: And the Potency [5]?
A: The Potency was inconclusive: 75.6 nM [cytotoxic, full curve] and active: 42.5 nM and inconclusive: 11.7 nM [cytotoxic, full curve].

Q: What about the Potency [14] of the same compound?
A: The Potency was inconclusive: 268 nM [rising, full curve] and inconclusive: 535 nM [rising, full curve].

Q: And the Potency [6]?
A: Its Potency is inconclusive: 298 nM [inhibitor, full curve] and inconclusive: 266 nM [inhibitor, full curve] and inconclusive: 58 nM [inhibitor, full curve].

Q: What about the Potency [15] of the same compound?
A: Its Potency is inconclusive: 1.88 µM [inhibitor, full curve, poor fit] and inconclusive: 531 nM [inhibitor, full curve, poor fit] and inconclusive: 461 nM [inhibitor, full curve].

Q: For COP(=O)(OC)SCn1c(=O)oc2cc(Cl)cnc21, which activity change, negative = inhibition [1] is on record?
A: Its activity change, negative = inhibition is inconclusive: -50.1%.

Q: What about the activation [2] of the same compound?
A: The activation was inconclusive: 21.2%.

Q: And the Potency [11]?
A: Its Potency is inconclusive: 68.6 µM [cytotoxic, single point].

Q: And the Potency [7]?
A: Its Potency is inconclusive: 61.1 µM [falling, partial curve, poor fit].

Q: What about the Potency [13] of the same compound?
A: The Potency was inconclusive: 30.6 µM [cytotoxic, partial curve, poor fit].

Q: What about the ratio activity, negative = inhibition [10] of the same compound?
A: Its ratio activity, negative = inhibition is inconclusive: -25.3%.

Q: For CCC(C)(C)C(=O)OC1=C(c2ccc(Cl)cc2Cl)C(=O)OC12CCCCC2, which Potency [1] is on record?
A: The Potency was inconclusive: 3.47 µM [rising, partial curve].

Q: What about the Potency [3] of the same compound?
A: Its Potency is “inactive”.

Q: What about the Potency [11] of the same compound?
A: The Potency was inconclusive: 61.1 µM [cytotoxic].

Q: And the Potency [4]?
A: Its Potency is inconclusive: 4.36 µM [activator, full curve].

Q: What about the Potency [5] of the same compound?
A: The Potency was “inactive”.

Q: And the Potency [7]?
A: Its Potency is inconclusive: 61.1 µM [rising, partial curve].

Q: What about the Potency [9] of the same compound?
A: Its Potency is active: 1.74 µM.

Q: What about the ratio activity, negative = inhibition [10] of the same compound?
A: Its ratio activity, negative = inhibition is inconclusive: 23.1%.

Q: For CCOP(=O)(NC(C)C)Oc1ccc(SC)c(C)c1 (stereo unspecified), which Potency [1] is on record?
A: Its Potency is inconclusive: 3.89 µM [rising, full curve, poor fit].

Q: What about the activation [2] of the same compound?
A: Its activation is inconclusive: 14.9%.

Q: What about the Potency [3] of the same compound?
A: Its Potency is inconclusive: 6.86 µM [inhibitor, full curve, poor fit].

Q: What about the Potency [5] of the same compound?
A: The Potency was inconclusive: 27.5 µM [cytotoxic, partial curve, poor fit].

Q: What about the Potency [8] of the same compound?
A: Its Potency is inconclusive: 13.7 µM [cytotoxic, full curve, poor fit].

Q: And the Potency [15]?
A: Its Potency is inconclusive: 68.6 µM [inhibitor, partial curve, poor fit].

Q: And the Potency [16]?
A: Its Potency is inconclusive: 68.6 µM.

Q: For CCOC(=O)CC(=O)CCl, which activity change, negative = inhibition [1] is on record?
A: The activity change, negative = inhibition was inconclusive: 16.6%.

Q: And the Potency [2]?
A: Its Potency is inconclusive: 49 µM [activator, partial curve, poor fit].

Q: And the Potency [11]?
A: The Potency was active: 61.1 µM.

Q: And the Potency [4]?
A: The Potency was inconclusive: 24.5 µM [activator, full curve, poor fit].

Q: And the Potency [7]?
A: The Potency was inconclusive: 61.1 µM [rising, partial curve].

Q: What about the Potency [9] of the same compound?
A: The Potency was active: 21.9 µM.

Q: And the Potency [10]?
A: Its Potency is inconclusive: 11 µM [falling, partial curve, poor fit].

From PubChem BioAssay (Tox21)
